± gives the standard deviation of the averaged measurements. Some of the results follow.

For this assay, the system named is PfAP2-I AP2 domain 3 (GST-tagged). As to the kind of experiment: gcPBM binding intensity (ln(normalized median fluorescence intensity)); higher = stronger DNA binding. An outline of the steps:
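DNA-binding domains from P. falciparum, fused to GST and produced in E. coli, were put on an Agilent 4 × 180k double-stranded probe array for 1 h in 1× PBS holding 1% milk, 0.2 mg/ml BSA, 0.5% salmon testes DNA and 0.03% Triton X-100. Probes were primer-extended, 36 bp long and drawn from intergenic genomic regions, with negative controls included. After Alexa488 anti-GST antibody detection and a 488 nm scan, binding intensity was set as the highest Masliner-normalised natural-log median intensity across replicate spots of either probe orientation.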
As to “ATGGGTTAGGCGTGTACACAATTGTATGGTTTAATA [CACACA_site4812]”, the “gcPBM binding intensity (ln)” value was 8.44 ± 0.49.

Turning to “TATATTAATTATAAGACACACATATAGTAATAGAAA [CACACA_site2056]”, the “gcPBM binding intensity (ln)” value stood at 7.82 ± 0.66.

Consider “ACATATTTTTACTTTTGTACATATTTTTTAATTTTC [XGTACX_site640]”, for which the “gcPBM binding intensity (ln)” value was 8.01 ± 0.69.

Turning to “TTTATATATTTTTATCTTGATAATAATGTTTTAGAA [TGCATGCA_negctrl_site300]”, the “gcPBM binding intensity (ln)” value was 7.32 ± 0.46.

Regarding “GTATATTACATAAAATGTACATAAAAAGCGGAAAAG [XGTACX_site6905]”, the “gcPBM binding intensity (ln)” value was determined as 8.41 ± 0.5.

“TAGATATATAGAATTACACACTTTTCTATAATATGA [CACACA_site6475]”: the “gcPBM binding intensity (ln)” value worked out at 7.29 ± 0.54.

Take TATATATATAAATGAATGCACTTTAGAAAAAAGTAC: the “gcPBM binding intensity (ln)” value is 10.2 ± 0.23.

Regarding “ATATATATTATAATAACACACATATATTATATTATA [CACACA_site406]”, the “gcPBM binding intensity (ln)” value was 7.83 ± 0.49.

“ATAAAATAAAACAACACACACGAATGTATAAATATA [CACACA_site4643]”: the “gcPBM binding intensity (ln)” value is 7.66 ± 0.66.

As for “AATAAAATACAAAAATGTACAAATATAATATACATA [XGTACX_site279]”, the “gcPBM binding intensity (ln)” value was 7.58 ± 0.46.

For “TAATAATATAAATATGCACACAAATTATTACCCAAA [CACACA_site8805]”, the “gcPBM binding intensity (ln)” value was 8.97 ± 0.47.

Take “TAATATAAAATGATAAATGAATGTGATCATTTTATA [CACACA_negctrl_site1034]”: the “gcPBM binding intensity (ln)” value was found to be 7.32 ± 0.52.

Take “ACATACTCAAATAGCACACACATAAATAAAAATGTA [CACACA_site3864]”: the “gcPBM binding intensity (ln)” value came to 8.42 ± 0.099.

As to “CATATATATTTTATATGTACATATATATTTTATATA [XGTACX_site8665]”, the “gcPBM binding intensity (ln)” value was determined as 7.59 ± 0.15.

With “ATATATATTTAAAACGCATGCCTTGTTATATATATA [TGCATGCA_site624]”, the “gcPBM binding intensity (ln)” value is 8.3 ± 0.57.

As for “ATTACAAAAATATATAAACACACAAATATAATATAT [CACACA_site8962]”, the “gcPBM binding intensity (ln)” value is 7.83 ± 0.56.

With “AATGGAAAAGGTAGTTGTACAACATGTTAAAATGGT [XGTACX_site1312]”, the “gcPBM binding intensity (ln)” value was found to be 8.52 ± 0.7.

Take “ATATAAATATTAATTACACACAAAAAAAAAAAAAAA [CACACA_site6671]”: the “gcPBM binding intensity (ln)” value was 8.04 ± 0.67.

Turning to “CTCAAAAAATTTCATAGTACTTTAAAATACTATAAT [XGTACX_site1939]”, the “gcPBM binding intensity (ln)” value turned out to be 7.49 ± 0.23.

Regarding “AATAAAAAAAAACGCACACACAAATATATTCCATTC [CACACA_site1224]”, the “gcPBM binding intensity (ln)” value worked out at 8.3 ± 0.31.

On to “ATATAAATAAACAACTTTGTTGGCCTTCCAAAATAT [CACACA_negctrl_site1181]”, for which the “gcPBM binding intensity (ln)” value was 7.56 ± 0.45.

For the sequence “TTGAAGAATAAATATGCACACATGCATATATTTTTA [CACACA_site5840]”, the “gcPBM binding intensity (ln)” value was 10.54 ± 0.099.

Take “TTTTGTTCTAATATGGGAACATAAATATTAAATATA [CACACA_negctrl_site1787]”: the “gcPBM binding intensity (ln)” value was found to be 7.45 ± 0.37.

For the sequence “ACATTTATATATAATTGTACCCTACATTCTCTTTTT [XGTACX_site189]”, the “gcPBM binding intensity (ln)” value came to 7.74 ± 0.65.

“GAAAAAAAAAAAAAAAGAAAATTCATATTTTTAATA [XGTACX_negctrl_site513]”: the “gcPBM binding intensity (ln)” value turned out to be 7.11 ± 0.47.

For “AAAAATATATAAACACGTACACACACATATATGTAT [XGTACX_site7436]”, the “gcPBM binding intensity (ln)” value was 8.16 ± 0.29.

Turning to “TACCAAAAAAAAAAAAAAAATTAAATAAATATGAAA [TGCATGCA_negctrl_site383]”, the “gcPBM binding intensity (ln)” value came to 7.33 ± 0.22.

Regarding “GGGTTGATATATATTTGTACATATTATTATTTATTA [XGTACX_site7116]”, the “gcPBM binding intensity (ln)” value was 8.04 ± 0.49.

As to “ATATATATATATTATGTGCGCATATACCATTTTAAT [GTGCAC_site9575]”, the “gcPBM binding intensity (ln)” value came out at 9.35 ± 0.16.

In the case of “TTTATTTTAACTTGTTCACACATTTGAATAAATAAA [CACACA_site5064]”, the “gcPBM binding intensity (ln)” value came to 7.71 ± 0.33.

Turning to “TTTAAAAAAATGAAATAAAAAAAAAATAAAATAAAA [XGTACX_negctrl_site316]”, the “gcPBM binding intensity (ln)” value was determined as 7.46 ± 0.71.

Regarding “AAATAATTTATATATTGTACAAATATTAAATGCGAA [XGTACX_site3390]”, the “gcPBM binding intensity (ln)” value is 7.97 ± 0.35.

As to “ATATATATAATTTGTACACACAAATATGCATATATA [CACACA_site3432]”, the “gcPBM binding intensity (ln)” value worked out at 8.05 ± 0.42.

Take “AGATATTTTTCTTAAGTACACACTAAATAGAAACTA [CACACA_site44]”: the “gcPBM binding intensity (ln)” value worked out at 7.88 ± 0.38.

With “TTTTTTTTTTTCAGTTGTACATTGGGAAAATATATA [XGTACX_site4416]”, the “gcPBM binding intensity (ln)” value turned out to be 8.04 ± 0.74.

As to “AGTCTGAATAAAATTACACACATATACCTATAAATA [CACACA_site6929]”, the “gcPBM binding intensity (ln)” value was 7.68 ± 0.56.

Regarding “ATAATATGTAATATTACACACAATTCATCATTTTTT [CACACA_site3159]”, the “gcPBM binding intensity (ln)” value was 7.58 ± 0.63.

For the sequence “ATATACACCGTTGAATGTACATAAATAATATTAATA [XGTACX_site2893]”, the “gcPBM binding intensity (ln)” value is 7.92 ± 0.34.

As to “AGTACATTTTTTTTAATAGGAAAAAAAATATTTATT [TGCATGCA_negctrl_site575]”, the “gcPBM binding intensity (ln)” value was found to be 7.66 ± 0.57.

As for “AAGTATTATTTTTATGCATGTGAAGTGCAAAATAAA [TGCATGCA_site198]”, the “gcPBM binding intensity (ln)” value came to 11 ± 0.43.

As to “ATATAATATATATGGTGTACATTTTTTAGTGCTATT [XGTACX_site1662]”, the “gcPBM binding intensity (ln)” value amounted to 8.23 ± 0.26.

With “AAAAAGTGACTCCTTACACACTTTACATAATTTAGT [CACACA_site4606]”, the “gcPBM binding intensity (ln)” value was 7.63 ± 0.57.

For “TAAAAGAATAAAAGTAGTACTTTTTTTTATATTAGA [XGTACX_site368]”, the “gcPBM binding intensity (ln)” value came to 7.45 ± 0.3.

As for “TCTTTTTTTTTTTATTGTACAAGAAAAGGAAAAAAT [XGTACX_site3717]”, the “gcPBM binding intensity (ln)” value amounted to 7.87 ± 0.36.

“ATATTTTTATATTAGTGTACTTATTATAATGTATAG [XGTACX_site8185]”: the “gcPBM binding intensity (ln)” value was determined as 7.88 ± 0.33.

With “AAGTATGCATTATATACACACATACATTTATATATT [CACACA_site4242]”, the “gcPBM binding intensity (ln)” value is 8.17 ± 0.49.

With “TTGGTTATACAACACATGCACACGTAAATAAATATT [CACACA_site3841]”, the “gcPBM binding intensity (ln)” value worked out at 8.27 ± 0.65.

For the sequence “TATATATAAAGAGAAACATGCAAAATGTGAATATTC [TGCATGCA_site377]”, the “gcPBM binding intensity (ln)” value is 8.04 ± 0.85.

On to “ATTATGTTAAAAAGGCGTACATGTTATAAGGTCCTA [XGTACX_site344]”, for which the “gcPBM binding intensity (ln)” value stood at 8.11 ± 0.6.

Take “TCCTTATAAATATATATATAATATATATATATATAT [CACACA_negctrl_site293]”: the “gcPBM binding intensity (ln)” value is 8.86 ± 0.2.

“TATATATATATTTATACACACATTAGTGTAGACATG [CACACA_site8964]”: the “gcPBM binding intensity (ln)” value is 8.915 ± 0.021.

Take “TTGTTCTAATATATTGCACACGTAAAAATATAGGTA [CACACA_site8195]”: the “gcPBM binding intensity (ln)” value is 9.99 ± 0.41.

For “TTATATATTTTTACCATACACACATATAATAAATAT [CACACA_site3721]”, the “gcPBM binding intensity (ln)” value came out at 8.04 ± 0.63.

With “ATAAAGATTTTCCAAGCATGCCACATAGTGAGATAC [TGCATGCA_site594]”, the “gcPBM binding intensity (ln)” value was 8.09 ± 0.71.

“ATCATAAAAGTATACACACATACATACATATGTACA [CACACA_site2641]”: the “gcPBM binding intensity (ln)” value was 7.88 ± 0.48.

“TATATATATATTATATGTACATATTCCTATATATAC [XGTACX_site7071]”: the “gcPBM binding intensity (ln)” value came to 9.06 ± 0.28.

For the origin of these results see the supplement of paper PMC11417369.
